Laboratory results: PubChem BioAssay AID485294 (National Center for Advancing Translational Sciences (NCATS), 2010)
The whole screen tested about 370,000 compounds, of which about 150 (0.041%) were called active. Inconclusive means that the source gave no clear call. Such entries were picked first, then a sample of the others. The call rests on the fitted dose curve; in most records, active means well fitted inhibition curve with a large enough effect; inconclusive means small, poorly fitted or top-dose-only effect; inactive means flat fitted curve, though single readings scatter. Potencies of inconclusive entries are left out as doubtful fits.
Further: nearly all actives have a fitted effect of over 25% in size.
Potency means the concentration at half of the fitted maximal effect; tags describe the fitted curve by direction and shape.
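Wherever activity change, negative = inhibition is given: 0% = no-compound wells and -100% = no-enzyme wells.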

The compounds below were run against Beta-lactamase (Escherichia coli (strain K12)) (UniProt P00811) (assay: qHTS Inhibitors of AmpC Beta-Lactamase (assay with detergent)). Conditions: AmpC hydrolysis of nitrocefin, absorbance 480 nm, 0.01% Triton; activity change, negative = inhibition: at 114 µM (top of the series).
Chain of UniProt P00811 (P00811 whole entry, looked up): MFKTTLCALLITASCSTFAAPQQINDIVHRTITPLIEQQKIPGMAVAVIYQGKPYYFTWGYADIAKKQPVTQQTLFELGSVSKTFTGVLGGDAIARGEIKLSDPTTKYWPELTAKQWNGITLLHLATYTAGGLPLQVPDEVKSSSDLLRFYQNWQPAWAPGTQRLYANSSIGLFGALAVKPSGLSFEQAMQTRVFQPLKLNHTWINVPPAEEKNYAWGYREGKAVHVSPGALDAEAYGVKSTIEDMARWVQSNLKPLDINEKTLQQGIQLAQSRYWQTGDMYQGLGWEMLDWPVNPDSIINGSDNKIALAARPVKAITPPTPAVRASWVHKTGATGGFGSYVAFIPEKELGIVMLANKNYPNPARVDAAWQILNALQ
Summary of the method: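 AmpC (5.3 nM in the dispensed reagent) in 20 mM phosphate pH 7.0 with 0.01% (detergent screen) or 0.0001% Triton X-100 was preincubated with compounds for 15 min at room temperature. Nitrocefin was then added from an 800 uM solution, and hydrolysis was followed at 480 nm.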
For `CCOc1ccc(Oc2cc(NC(=O)c3ccco3)cc([N+](=O)[O-])c2)cc1`, the “activity change, negative = inhibition” value was inactive: -2.86%.
`CC1CCN(c2nc(-c3ccccc3O)nc3ccccc23)CC1` was tested, and the “activity change, negative = inhibition” value was inactive: 2.55%.
`COc1ccc(C(=O)NCCCNC(=O)c2cccnc2)cc1Br` was tested, and the Potency was inconclusive [inhibitor, full curve, poor fit].
`Cc1ccccc1OCC(=O)OC(C(=O)c1ccccc1)c1ccccc1` (stereo unspecified) was tested, and the Potency was inconclusive [inhibitor, partial curve, poor fit].
For `COc1ccc2[nH]c3c(=O)n(Cc4ccco4)cnc3c2c1`, the Potency was inconclusive [inhibitor, partial curve].
In the case of `COc1ccc(N2CCN(C(=O)c3cc4c(-c5cccc(OC)c5)nn(C)c4s3)CC2)cc1`, the “activity change, negative = inhibition” value is reported as inactive: -1.86%.
`COc1cccc(/C=N/NC(=O)CN(C2=NS(=O)(=O)c3ccccc32)c2ccccc2)c1` was tested, and the “activity change, negative = inhibition” value was inactive: -14.7%.
`CC[C@H](C)[C@@H]1NC(=O)c2cc([N+](=O)[O-])cc(F)c2OCC[C@@H](C(N)=O)NC(=O)[C@H](CCCCN)NC1=O` was tested, and the Potency was inconclusive [inhibitor, partial curve].
In the case of `CCOc1ccc(NS(=O)(=O)c2ccc(C(=O)NCC(C)(C)N3CCOCC3)cc2)cc1`, the Potency is reported as inconclusive [inhibitor, full curve, poor fit].
In the case of `O=C(Cc1ccccc1)Oc1ccc([N+](=O)[O-])cc1`, the Potency is reported as inconclusive [inhibitor, partial curve].
With `O=S(=O)(c1ccc(N2CCCC2)cc1)C(F)(F)F` the “activity change, negative = inhibition” value was inactive: -4.7%.
With `CC1CC(C)(C)CC2(C1)NC(=O)N(CC(=O)NC1CCCc3ccccc31)C2=O` (stereo unspecified) the Potency was inconclusive [inhibitor, partial curve, poor fit].
In the case of `O=C(c1ccncc1)C12CN3CN(CN(C3)C1)C2`, the Potency is reported as inconclusive [inhibitor, single point].
`NS(=O)(=O)c1ccc(NC(=O)CSc2nc3ccccc3n2-c2ccccc2)cc1` was tested, and the Potency was inconclusive [inhibitor, partial curve].
With `Cc1ccc(N(C(=O)c2csnn2)C(C(=O)NC2CCCCC2)c2ccncc2)c(C)c1` (stereo unspecified) the “activity change, negative = inhibition” value was inactive: 6.35%.
For `O=C(CCCCC(=O)NCCc1ccccc1)NCCc1ccccc1`, the Potency was inconclusive [inhibitor, full curve, poor fit].
With `O=C(NCc1ccc(Cl)cc1)C1CCN(S(=O)(=O)c2cccnc2)CC1` the Potency was inconclusive [inhibitor, full curve, poor fit].
With `COc1ccc(C(=O)N/N=C/c2ccc(OC)c(CSc3ccccn3)c2)cc1` the Potency was inconclusive [inhibitor, partial curve, poor fit].
`CCCN(CCC)CCCNC(=O)Cn1cnc2sc(C)c(S(=O)(=O)N3CCC(C)CC3)c2c1=O` was tested, and the activity change, negative = inhibition was inconclusive: -16.1% [inhibitor].
With `CCc1nn2c(=O)cc(COC(=O)c3cc(Cl)c(OC)c(OC)c3)nc2s1` the Potency was inconclusive [inhibitor, single point].
With `COc1ccc([C@@H]2CC=C(C(=O)O)[C@H](c3ccc(Cl)cc3)N2S(=O)(=O)c2ccccc2C)cc1` the Potency was inconclusive [inhibitor, single point].
`Cc1cccc(NS(=O)(=O)c2ccc3c(c2)CCN3C(=O)C2CCC2)c1` was tested, and the “activity change, negative = inhibition” value was inactive: 0.947%.
In the case of `O=C(O)c1cc(NN=C2c3ccccc3-c3ccccc32)ccc1Cl`, the “activity change, negative = inhibition” value is reported as inactive: -7.14%.
In the case of `Cc1ccc(NC(=O)NNC(=O)c2ccccc2)cc1`, the “activity change, negative = inhibition” value is reported as inactive: 3.26%.
`Cc1cc(C)n(-c2nc3ccccc3nc2NCCc2ccccc2)n1` was tested, and the Potency was inconclusive [inhibitor, full curve, poor fit].
With `Nc1cccc(P(=O)(c2ccccc2)c2ccccc2)c1` the Potency was inconclusive [inhibitor, full curve, poor fit].
`CC(NC(=O)C1CCCN(S(=O)(=O)c2cccc3nonc23)C1)c1ccccc1` (stereo unspecified) was tested, and the Potency was inconclusive [inhibitor, single point].
For `Cc1ccc(C)c(N2CCN(Cc3csc(C)c3)CC2)c1`, the “activity change, negative = inhibition” value was inactive: -9.22%.
With `CC(=O)Nc1ccc(NC(=O)C2CCCN(C(=O)c3ccc(Cl)cc3)C2)cc1` (stereo unspecified) the “activity change, negative = inhibition” value was inactive: 2.35%.
For `Cc1c(C(=O)Nc2cccc([N+](=O)[O-])c2)sc2ncn(CC(=O)N3CCOCC3)c(=O)c12`, the Potency was inconclusive [inhibitor, full curve, poor fit].
In the case of `COC(=O)CSc1ccc2nnc(-c3ccc(OC)c(OC)c3)n2n1`, the Potency is reported as inconclusive [inhibitor, full curve, poor fit].
With `CCOC(=O)Cc1cc(=O)n2[nH]c(-c3ccccc3)cc2n1` the Potency was inconclusive [inhibitor, full curve, poor fit].
For `O=C(O)CC(C(=O)O)n1nc(-c2ccccc2)cc1-c1ccccc1` (stereo unspecified), the “activity change, negative = inhibition” value was inactive: -2.17%.
`Cc1ccc(-c2cc(-c3ccc(C)cc3)[n+](C)o2)cc1` was tested, and the Potency was inconclusive [inhibitor, full curve].
For `COC(=O)CCC(=O)N1CCC(CCC(=O)NCc2ccc(F)cc2)CC1`, the Potency was inconclusive [inhibitor, full curve, poor fit].
`Cc1ccc(-c2nc(NCCN3CCOCC3)c3ccccc3n2)cc1` was tested, and the “activity change, negative = inhibition” value was inactive: -8.84%.
In the case of `O=C(Nc1ccc(C2CC2(Cl)Cl)cc1)c1cccc([N+](=O)[O-])c1` (stereo unspecified), the Potency is reported as inconclusive [inhibitor, partial curve].
For `CCN(CC)c1ccc(NC(=O)CSc2nnc3nc(C)cc(C)n23)cc1`, the “activity change, negative = inhibition” value was inactive: -2.92%.
In the case of `COc1ccccc1C1C(C#N)=C(N)N(c2cccnc2)C2=C1C(=O)CC(C)(C)C2` (stereo unspecified), the Potency is reported as inconclusive [inhibitor, partial curve].
For `COc1ccc(NC(=O)CSCC(=O)Nc2ccc(C)c(S(=O)(=O)N3CCCCCC3)c2)cc1`, the Potency was inconclusive [inhibitor, single point].
For `CCOc1ccc(S(=O)(=O)Nc2ncn[nH]2)cc1`, the “activity change, negative = inhibition” value was inactive: -13.7%.
With `CC(=O)Nc1ccc(NC(=O)C(C)OC(=O)CCC2CCCC2)cc1` (stereo unspecified) the Potency was inconclusive [inhibitor, full curve, poor fit].
`O=C(Nc1ccc(C(F)(F)F)cc1)c1ccccc1-n1cnnn1` was tested, and the Potency was inconclusive [inhibitor, partial curve].
`CN1C(=O)[C@@H]2C[C@@]3([C@@]45C[C@H]6C(=O)N(C)[C@@H](Cc7ccccc7)C(=O)N6[C@@H]4Nc4ccccc45)c4ccccc4N[C@H]3N2C(=O)[C@@H]1Cc1ccccc1` was tested, and the Potency was inconclusive [inhibitor, partial curve].
With `CCCCOc1cccc(OCCCC)c1C(=O)Nc1cc(C)on1` the Potency was inconclusive [inhibitor, partial curve].
`O=C(COC(=O)c1ccccc1Nc1ccccc1)Nc1ccccc1` was tested, and the Potency was inconclusive [inhibitor, full curve, poor fit].
For `Cc1ccc(CC(=O)NCCc2ccc(S(N)(=O)=O)cc2)cc1`, the Potency was inconclusive [inhibitor, partial curve, poor fit].
`CC(=O)c1ccc(OCC(O)CN2CCN(c3ccc(F)cc3)CC2)cc1` (stereo unspecified) was tested, and the “activity change, negative = inhibition” value was inactive: -6.33%.
For `Cc1ccc(CSc2ncnc3ccccc23)cc1`, the “activity change, negative = inhibition” value was inactive: -13.5%.
`CCNC(=S)NNC(=O)C1CCN(Cc2ccccc2)CC1` was tested, and the Potency was inconclusive [inhibitor, full curve].
In the case of `C=CC(=O)NCc1ccc(-c2csnn2)cc1`, the Potency is reported as inconclusive [inhibitor, single point].
For `Cc1ccccc1Nc1c(-c2cccs2)nc2cccc(C)n12`, the “activity change, negative = inhibition” value was inactive: 2.3%.
For `CC1Cc2cc(S(=O)(=O)N(Cc3ccccc3)C(C)C)ccc2N1C(=O)C1CCC1` (stereo unspecified), the “activity change, negative = inhibition” value was inactive: 16.6%.
In the case of `O=C(Nc1nnc(-c2ccccc2)s1)c1ccc(Cl)c(S(=O)(=O)N2CCOCC2)c1`, the Potency is reported as inconclusive [inhibitor, full curve, poor fit].
For `O=C(c1ccc(S(=O)(=O)Nc2ccccc2)cc1)N1CCC1`, the Potency was inconclusive [inhibitor, full curve, poor fit].
With `O=C(c1ccc(=O)[nH]c1)N1CCN(S(=O)(=O)c2ccc(Cl)cc2)CC1` the Potency was inconclusive [inhibitor, full curve, poor fit].
With `COc1ccc(COc2cc(-c3cccc(OC)c3)nc3ccc(NC(=O)C(C)C)cc23)cc1` the Potency was inconclusive [inhibitor, full curve, poor fit].
`CCn1nnnc1SCC(=O)c1ccc2c(c1)OCCO2` was tested, and the Potency was inconclusive [inhibitor, full curve, poor fit].
With `O=C(NCCC1=CCCCC1)c1ccc(F)cc1` the Potency was inconclusive [inhibitor, full curve].
In the case of `N#C/C(=C/c1ccc(N2CCOCC2)o1)c1ccc(Cl)cc1`, the “activity change, negative = inhibition” value is reported as inactive: 1.9%.
For `COc1ccc(-n2cccc2/C=C2\C(=N)N3N=C(c4ccco4)SC3=NC2=O)cc1`, the Potency was inconclusive [inhibitor, partial curve].
For `CCOC(=O)N1CCN(Cc2ccc3c(c2)OCO3)CC1`, the Potency was inconclusive [inhibitor, full curve, poor fit].
`Cn1cc(S(=O)(=O)c2ccccc2)c(=O)c2cc(F)c(N3CCCCCC3)cc21` was tested, and the Potency was inconclusive [inhibitor, single point].
`CC(NS(=O)(=O)c1ccc(Br)cc1)C(c1cccs1)N1CCN(C)CC1` (stereo unspecified) was tested, and the Potency was inconclusive [inhibitor, full curve].
For `Cc1ccc(Oc2ccc(-c3nnc(-c4ccccc4)o3)cc2[N+](=O)[O-])cc1C`, the “activity change, negative = inhibition” value was inactive: -15.4%.
With `CCOC(=O)c1c(NC(=O)CNCCO)sc(C)c1C` the Potency was inconclusive [inhibitor, full curve, poor fit].
